The values that follow come from article PMC10726135.

Some of the results follow. At the low end of the ranking, values are background and their order means little. The protein was read in a cell extract, so binding may be indirect.

The experiment concerns the target T1, HNF4alpha8 (COS-7 nuclear extract) (UniProt P41235-5).
T1 sequence: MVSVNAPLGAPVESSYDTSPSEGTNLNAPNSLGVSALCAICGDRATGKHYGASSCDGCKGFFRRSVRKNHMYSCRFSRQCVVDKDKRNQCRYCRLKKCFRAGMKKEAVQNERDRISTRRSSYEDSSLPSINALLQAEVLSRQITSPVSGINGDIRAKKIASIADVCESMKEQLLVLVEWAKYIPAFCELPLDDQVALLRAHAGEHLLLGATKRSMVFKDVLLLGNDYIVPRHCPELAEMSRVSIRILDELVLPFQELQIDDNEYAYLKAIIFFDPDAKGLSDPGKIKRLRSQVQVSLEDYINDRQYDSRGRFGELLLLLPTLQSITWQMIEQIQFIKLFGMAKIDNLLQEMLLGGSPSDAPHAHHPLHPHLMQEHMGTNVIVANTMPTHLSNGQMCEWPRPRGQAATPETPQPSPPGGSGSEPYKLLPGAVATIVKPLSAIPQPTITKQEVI
Briefly: protein-binding microarray. The conditions noted are these: COS-7 nuclear extract on double-stranded Agilent 4x180k PBM; binding buffer, salt, pH and temperature not given; high values mean tight binding; double strand, one strand shown; sequences stand for … in …GCCTAGGGAGATTAGAGTATCGGTCGA
Turning to CCAAGACCAAGCAAGCCAGTCAGAATCTCT, the binding signal (log2 normalized intensity) was -1.24.

As for CTCATGTGGTCCTAAGACTGACCTTTGATC, the binding signal (log2 normalized intensity) was 10.6. Consider TGATGAAACTCCTTCCCTTTCATGTTGAAC, for which the binding signal (log2 normalized intensity) amounted to 1.78. Regarding TAGAAGCTGAGCAGCAATCAGCTCCTCAAC, the binding signal (log2 normalized intensity) is -1.37. Turning to AATCCTCCCACCTCAGCATCCCAAGTAGCT, the binding signal (log2 normalized intensity) stood at 1.44.

For the sequence TGCTCGGCATCCCTGCCGTGGCTGGAACTC, the binding signal (log2 normalized intensity) is -1.29.

CAACATGTGGGCAAATAGGATTAGGAAACC: the binding signal (log2 normalized intensity) is -1.28.

AAACGTTCTTCTCTAACCCTCCTTTTAATC: the binding signal (log2 normalized intensity) came to 1.33. As to TGCCCCCGATAGCACTATTAGTCTTAGATT, the binding signal (log2 normalized intensity) was found to be 1.95. The value for GATTTTCAGGTTCCCCAGTGAGGATGTGTG was 1.53; that for GTAACTATGGGGCAAAGTGCAAGCAAACAT was 3.12; that for CCAGTTAATGCTGAACTTTAGCTCACTGTT was 1.91. The value for CAGCCCTCCTCTCTGTAGTCCTCAGCAATA was 0.967; that for TGTGTACGGACGCATCTGTCGGCTCTCGTA was -1.34. Next, GACAGATAAGAAGGGGTCAGACCAGACAGC: 0.858.

On to ACCAAGGACAAACTGAGGAGGACATACTCC, for which the binding signal (log2 normalized intensity) is -1.32.

On to GACAGAAGCAGGACTTAAACACCAGTACTC, for which the binding signal (log2 normalized intensity) was -1.48.

CGGAGGGCGGGGCGGGGCAGCAGGGAAGAG: the binding signal (log2 normalized intensity) is -1.4. For GACGTTCTGCCCCTTATCTTCTGGCCACCT, the binding signal (log2 normalized intensity) was 2.08.

In the case of AGCTAAATAAATAACTCTAAGAAATAGGTT, the binding signal (log2 normalized intensity) is -1.45.

In the case of AAAGTTCAAGTCATAACTGGATGGTGCCTA, the binding signal (log2 normalized intensity) is 0.211. Turning to CTGGCAGAATTCCTTCTTGCTTAGGATAGG, the binding signal (log2 normalized intensity) was -1.28.

Take TAGACCTGGCCTCGGGGAGCTGTGGGCCTC: the binding signal (log2 normalized intensity) was -1.02. Take TAGGGACCGCAAATAAAAGAGGGCCCCATC: the binding signal (log2 normalized intensity) was -1.31. For GTGACCTCTTATCTCATCCTGTGACCAAGA, the binding signal (log2 normalized intensity) worked out at 1.52.

Regarding CAGAGACGGCAAGCCATAGTTAACCCAGAA, the binding signal (log2 normalized intensity) was -1.21. Turning to GGTCATTTGTTTTTACAGACAGGCATGACA, the binding signal (log2 normalized intensity) was found to be 0.0933. Consider TCCACACCCCAGCCTGCCCTCCTAGGGACA, for which the binding signal (log2 normalized intensity) was 3.34. Next, AAGCAATGCTGGGGACCTTTGGCCTTTACC: 5.77; ATGAGGCCCCAGTGATGACAGCAAGATAAT: -1.3; TCTCTCCCTCCTCCTTTTTTTCCCCTCCCT: 4.47. Take CACTCAGGCACTGGGATCCAAAGTTCATGG: the binding signal (log2 normalized intensity) stood at 4.52. In the case of GCCAGTGTGGCTAACAATATGGGGTGGGGA, the binding signal (log2 normalized intensity) was -1.31. Next, TAAATAGTGACAAATTGTATAGTTGCTGAT: -0.564; GGAGCATGATGAAATTTCCTCTTACCACAT: -0.847; TTGTTTTAAGTTCATAGGTCCTCTTGGAAG: 1.63. Take CAGCCAGCCTGAGGCAGTTGGAAAATATTT: the binding signal (log2 normalized intensity) is -1.3.

For GAATAGTTAAGTAACGTGTCAGAGGTCACT, the binding signal (log2 normalized intensity) is 3.94. TGCTCCAGCCAGAGGCCTTATCTGGCCGCC: the binding signal (log2 normalized intensity) is -1.33. On to TGTGTACTCTATCCAGTAGAGGGCATAGCA, for which the binding signal (log2 normalized intensity) was determined as 1.9. In the case of CCCCTTCTGAGTCTCCAATGTCCATTATAT, the binding signal (log2 normalized intensity) came out at 1.52. In the case of ACAAGAGGAATGTTCATTCATTCACCTTTC, the binding signal (log2 normalized intensity) came out at 0.765. Consider GGCGCGCGGGCCGGGAGGGGGACGCTTTCT, for which the binding signal (log2 normalized intensity) was -1.29. For AATGTGATAGACAGGATGCCTGAGTAATTA, the binding signal (log2 normalized intensity) was -0.196.

On to CAAACTTCTCCACTCTTCATAATTACCATT, for which the binding signal (log2 normalized intensity) is -0.446. Take TCTGAGGGCCAGCAGTGCCCAAAGCCCAAG: the binding signal (log2 normalized intensity) is -1.26.

For the sequence CATTCCATTACTGCAGAGGCTGGTTCACAC, the binding signal (log2 normalized intensity) was 1.08. Turning to TACAGAGGCTCTGAGAGTCTCAGTGACTCA, the binding signal (log2 normalized intensity) was -1.24.

CTGTTATCAGAGCTGGAGGAGACCTTTGGA: the binding signal (log2 normalized intensity) is 6.18.

Take CCAGGTGTAGATAAACTGGAAAGGGCTTCA: the binding signal (log2 normalized intensity) is -1.32. In the case of TTGTTGACATCTGCTTCCAAAGAGCTCAAC, the binding signal (log2 normalized intensity) is -1.24. Next, GTTCTGGACTTCTCTGCCCTCTTCCCTCTA: 2.65; AAAGGTCTGCTGTACATATTTGCCAAGTGA: 0.204; AGTTGGTGAGAACAGAGTCTCCGAGGAACC: -1.35. Consider CAAAGGTCAGGACAAGGCTCTGGTGGGGAA, for which the binding signal (log2 normalized intensity) stood at 2.94. Consider CTTCCTGGCCCTAGCTGGGTTTTTCAAAGG, for which the binding signal (log2 normalized intensity) turned out to be 1.17. Turning to GGGATGTTTGGCAGCTGAGGATTGTCAGGC, the binding signal (log2 normalized intensity) is -0.398. As for TTACAAAGGTCACACACCTGTGCAAACATT, the binding signal (log2 normalized intensity) turned out to be 1.9. As to TAATCTTCACTAGACCTAGATAAGGGAGAT, the binding signal (log2 normalized intensity) was -1.18.

As to GTGCTGGGATTACAGGCGTGAGCCACCGCG, the binding signal (log2 normalized intensity) is -1.3. For TATTAGAGTCCCTTTTTTAGACAAGGAAAA, the binding signal (log2 normalized intensity) was -0.42. Turning to TGTTCTAGCTCGGGGGCCCTTCCCCCCTCT, the binding signal (log2 normalized intensity) worked out at 2.68. Take TGACCACATGCCCTCAGTACAGGGCGTCCT: the binding signal (log2 normalized intensity) was -0.511. As for ATATTCTCTCGTCACCTCCACCCACCCGTG, the binding signal (log2 normalized intensity) amounted to 4.13.

Take AGAAAGGCAGAAAACTCAGATTCCTATGGT: the binding signal (log2 normalized intensity) is -1.08.

As to GGACTTGGGACTTTCGAGTTAATGCTGGAG, the binding signal (log2 normalized intensity) was found to be 3.2.

As to GTCACTCCCACCCTTCCTGTTATGTTTTTT, the binding signal (log2 normalized intensity) was found to be 1.88. With ATGTCTCCAGAAACCAACCTTTGATCATTC, the binding signal (log2 normalized intensity) worked out at 5.75. Take GCCCACTCCTCCCTCAGGGATCTTTGCACT: the binding signal (log2 normalized intensity) turned out to be 3.3. AGGGTCAAAGGGTCAAGTTCAGATCCTGGC: the binding signal (log2 normalized intensity) turned out to be 5.03. With GTCAAACTGGTTTCTTGTCTGCCCCAGGGC, the binding signal (log2 normalized intensity) came out at 2.47. As for TTTAGGCTGTCAGCCACCAAAGCAGCTAGC, the binding signal (log2 normalized intensity) was -1.17.
